From PubChem BioAssay AID588855 (National Center for Advancing Translational Sciences (NCATS), 2011)
Screen size: about 410,000 compounds; about 5,000 (1.2%) were called active. Inconclusive results, whose numbers are uncertain, are shown with a selection of clear calls. Calls come from the whole dose curve; as a rule, active = well fitted inhibition curve with a large enough effect; inconclusive = small, poorly fitted or top-dose-only effect; inactive = no such curve, though single readings can be large or run the other way. Potencies of inconclusive entries are doubtful fits and often do not repeat. More than one record can exist for a structure, and the calls need not agree.
Potency is the fitted concentration of half-maximal effect; tags give direction and shape of the fitted curve.

Assay: qHTS for Inhibitors of TGF-b; note: nearly all actives have a fitted effect of over 65% in size
Settings: HepG2 CAGA-GFP TGF-b/SMAD3 reporter, GFP fluorescence, 18 h, TGF-beta stimulated, 500 pg/mL final; series mostly up to 46.1 µM
Summary of the method: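 HEPG2 CAGA-GFP reporter cells (1000/well, DMEM with 1% FBS) received compounds, then recombinant TGF-beta at 500 pg/mL final for 18 hours at 37 degrees C. Per-cell GFP summed per well was normalised to unstimulated and stimulated DMSO controls before curve fitting.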
With `O=c1cc(C(F)(F)F)[nH]c2ccc(C(F)(F)F)cc12` the Potency was inconclusive: 17.8 µM [inhibitor, single point]. In the case of `COc1ccccc1Cn1cc(C(=O)c2ccc(Cl)cc2)c(=O)c2ccccc21`, the Potency is reported as inconclusive: 35.5 µM [inhibitor, single point]. For `CC1Cc2cc(S(=O)(=O)NCCc3ccc(Cl)cc3)ccc2N1C(=O)C1CCC1` (configuration not stated), the Potency was inconclusive: 35.5 µM [inhibitor, single point]. For `CCCCOc1ccc(N2C(N)=NC(N)=NC23CCCCC3)cc1`, the Potency was inconclusive: 35.5 µM [inhibitor, single point]. For `CCOC(=O)C1=C(N)Oc2cc(O)ccc2C1c1ccc(F)cc1F` (configuration not stated), the Potency was inconclusive: 31.6 µM [inhibitor, single point]. For `O=C(COc1ccccc1Cl)OCc1cc(=O)n2nc(C3CCCCC3)sc2n1`, the Potency was inconclusive: 0.891 µM [inhibitor, full curve, poor fit]. For `COc1ccc(-n2ncc3c2CC(C)(C)CC3NC(=O)CN2CCOC2=O)cc1` (configuration not stated), the Potency was inconclusive: 5.62 µM [inhibitor, single point]. With `CN(C)/C(=N\S(=O)(=O)c1ccc(Cl)cc1)c1ccc(F)cc1` the Potency was “inactive”. In the case of `CN(C)CCCNc1oc(-c2ccccc2Cl)nc1S(=O)(=O)c1ccc(F)cc1`, the Potency is reported as inconclusive: 12.6 µM [inhibitor, partial curve, poor fit]. With `O=C(NCC(=O)N(c1cccnc1)C(C(=O)NC1CCCC1)c1ccco1)c1cccs1` (configuration not stated) the Potency was inconclusive: 5.62 µM [inhibitor, single point]. For `COc1ccc(OCC(=O)N2CCC(c3nc4ccccc4s3)CC2)cc1`, the Potency was inconclusive: 35.5 µM [inhibitor, single point]. For `COc1ccccc1S(=O)(=O)Nc1cc(C)nn1-c1ccc(C)cc1`, the Potency was “inactive”. In the case of `O=C(NC1CCCC1)c1ccc(CSc2nc3ccncc3n2Cc2cccc(F)c2)cc1`, the Potency is reported as inconclusive: 17.8 µM [inhibitor, partial curve, poor fit]. With `CCOc1cc(C(=O)NCc2ccc3c(c2)CCN3C(=O)c2ccc(F)cc2)cc(OCC)c1OCC` the Potency was “inactive”. With `CC1Nc2ccccc2C(=O)N1NS(C)(=O)=O` (configuration not stated) the Potency was inconclusive: 2.82 µM [inhibitor, single point]. In the case of `Nc1c(C(=O)NCCN2CCOCC2)c2nc3ccccc3nc2n1CCc1ccccc1F`, the Potency is reported as inconclusive: 35.5 µM [inhibitor, single point]. For `O=C(CSc1nccc(=O)[nH]1)Nc1ccc(F)c(Cl)c1`, the Potency was inconclusive: 0.708 µM [inhibitor, full curve, poor fit]. In the case of `COc1ccc(-c2nc3ccc(Br)cn3c2Cc2cccc(F)c2)cc1OC`, the Potency is reported as inconclusive: 35.5 µM [inhibitor, single point]. With `CCOC(=O)c1c(-c2ccccc2)oc2cc(Br)c(O)cc12` the Potency was inconclusive: 17.8 µM [inhibitor, single point]. With `O=C(NC1=NCCS1)c1sc2cc(F)ccc2c1Cl` the Potency was inconclusive: 5.62 µM [inhibitor, single point]. With `COc1cccc(OC)c1OCCN1CCN(C(c2ccccc2)c2ccccc2)CC1` the Potency was inconclusive: 22.4 µM [inhibitor, single point]. For `CSc1ccccc1NC(=O)Nc1ccc(Cl)cc1`, the Potency was inconclusive: 25.1 µM [inhibitor, single point]. In the case of `CN(C)c1ccc(/C=C/c2nc3ccccc3s2)cc1`, the Potency is reported as active: 12.6 µM. For `O=C(c1cccc(F)c1)N1CCc2ccccc21`, the Potency was inconclusive: 2.24 µM [inhibitor, full curve]. For `CC(C)(C)n1nnnc1C(c1ccccn1)N(Cc1ccccc1)Cc1ccc(Cl)cc1` (configuration not stated), the Potency was “inactive”. With `COc1ccc(S[C@@H](CCN2CC[C@H](O)CCC2=O)c2ccccc2)cc1` the Potency was inconclusive: 3.98 µM [inhibitor, single point]. With `O=C([O-])c1ccccc1-[n+]1c(-c2ccccc2)cc(-c2ccccc2)cc1-c1ccccc1` the Potency was inconclusive: 12.6 µM [inhibitor, partial curve, poor fit]. For `COc1ccc(Br)cc1CNC(=O)c1cnc2sc(N3CCCC3)nn2c1=O`, the Potency was inconclusive: 3.55 µM [inhibitor, partial curve, poor fit]. For `CCC(C(=O)OCC(=O)C1(O)CCC2C3CCC4=CC(=O)CCC4(C)C3C(O)CC21C)C(C)C` (configuration not stated), the Potency was inconclusive: 11.2 µM [inhibitor, partial curve, poor fit]. In the case of `CN1CCc2c(sc3c2c(=O)n(-c2cccc(Cl)c2)c2nncn32)C1`, the Potency is reported as “inactive”. In the case of `COc1cccc(N2C(=O)C(CC(=O)Nc3ccccc3)N(C3CCCCC3)C2=O)c1` (configuration not stated), the Potency is reported as inconclusive: 22.4 µM [inhibitor, single point]. In the case of `CCOc1cc(/C=N/NC(=O)c2nnn(-c3nonc3N)c2C)ccc1OCc1cccc(F)c1`, the Potency is reported as “inactive”. For `CC1(C)C=Cc2c(c3c(c4c(=O)c(-c5ccc(O)cc5)coc24)OC(C)(C)CC3)O1`, the Potency was active: 14.1 µM. For `CC1CN(S(=O)(=O)c2ccc(C(=O)Nc3nnc(-c4ccc5c(c4)CCCC5)o3)cc2)CC(C)O1` (configuration not stated), the Potency was inconclusive: 3.98 µM [inhibitor, partial curve, poor fit]. With `CCOC(=O)C1(Cc2cccc(Cl)c2)CCCN(C(=O)c2cnn(CC)c2)C1` (configuration not stated) the Potency was inconclusive: 0.631 µM [inhibitor, full curve]. With `CC(=O)c1ccc(NC(=O)CC2S/C(=N/N=C3CCCCCC3)NC2=O)cc1` (configuration not stated) the Potency was “inactive”. In the case of `COc1ccccc1Cc1c(-c2ccc(Cl)cc2)nc2ccc(Br)cn12`, the Potency is reported as inconclusive: 35.5 µM [inhibitor, single point]. For `COc1ccc2nc(NC(=O)CSc3nnc(-c4ccoc4C)n3C)sc2c1`, the Potency was inconclusive: 22.4 µM [inhibitor, single point]. With `COc1cccc(C2NC(=O)c3n[nH]c(-c4cccs4)c32)c1` (configuration not stated) the Potency was “inactive”. In the case of `O=C(c1ccccc1)N1CCC(CC2CC(c3cccc(Br)c3)=NO2)(C(=O)NCC2CCCCC2)CC1` (configuration not stated), the Potency is reported as “inactive”. For `O=C1c2ccccc2C(=O)N1CC(O)COc1ccc(Br)cc1` (configuration not stated), the Potency was “inactive”. With `C=CCCC(=O)N1C[C@H]2CCN(C)[C@H]2C[C@H]1c1ccc(Br)cc1` the Potency was inconclusive: 35.5 µM [inhibitor, single point].
